Measured values taken from PubChem BioAssay AID1460 (National Center for Advancing Translational Sciences (NCATS), 2008).
In all, about 270,000 compounds went through this assay and about 5,800 (2.1%) were called active. This list was built around the results that the source calls inconclusive (neither active nor inactive); the mix of calls is not that of the screen. Calls follow the shape of the dose curve; as a rule, active = well fitted inhibition curve with a large enough effect; inconclusive = small, poorly fitted or top-dose-only effect; inactive = flat fitted curve, though single readings scatter. Potencies of inconclusive entries are doubtful fits and often do not repeat.

Target: Microtubule-associated protein tau (Homo sapiens) (UniProt P10636)
UniProt P10636, sequence (P10636 whole entry, looked up): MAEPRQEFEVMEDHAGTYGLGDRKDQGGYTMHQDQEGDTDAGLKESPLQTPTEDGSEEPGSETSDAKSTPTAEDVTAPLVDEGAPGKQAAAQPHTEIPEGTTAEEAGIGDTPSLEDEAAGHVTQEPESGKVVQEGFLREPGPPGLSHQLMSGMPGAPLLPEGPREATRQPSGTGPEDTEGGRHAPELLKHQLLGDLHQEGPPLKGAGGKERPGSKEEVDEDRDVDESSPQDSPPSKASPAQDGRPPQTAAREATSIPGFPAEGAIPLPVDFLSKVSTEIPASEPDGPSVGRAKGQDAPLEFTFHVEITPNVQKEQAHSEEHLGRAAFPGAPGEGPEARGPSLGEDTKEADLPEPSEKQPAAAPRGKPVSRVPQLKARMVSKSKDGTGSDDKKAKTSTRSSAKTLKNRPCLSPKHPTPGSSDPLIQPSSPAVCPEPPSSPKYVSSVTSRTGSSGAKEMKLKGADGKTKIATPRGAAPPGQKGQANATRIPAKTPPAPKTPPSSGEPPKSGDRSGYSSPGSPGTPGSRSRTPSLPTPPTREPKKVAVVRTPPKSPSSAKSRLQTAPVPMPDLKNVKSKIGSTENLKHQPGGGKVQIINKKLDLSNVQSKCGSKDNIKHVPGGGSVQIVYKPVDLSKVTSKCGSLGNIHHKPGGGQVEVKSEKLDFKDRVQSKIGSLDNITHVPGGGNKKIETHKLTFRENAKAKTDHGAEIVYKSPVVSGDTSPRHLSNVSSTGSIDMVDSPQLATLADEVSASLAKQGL
Test: qHTS for Inhibitors of Tau Fibril Formation, Thioflavin T Binding; also: nearly all actives have a fitted effect of over 55% in size
Conditions: recombinant tau K18 P301L (four-repeat tau fragment), heparin-induced fibrillization, ThT fluorescence; series mostly up to 57.4 µM; activity, negative = inhibition: at the top concentration
How it was run: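 Heparin-induced fibrillization of the P301L-mutant K18 repeat-domain fragment of human tau was followed by ThT binding in quantitative high-throughput format.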
% is scaled to controls: 0 for no effect and ±100 for the full control effect; potency is read from the fitted curve at half-maximal effect; tags tell the direction and shape of the fitted curve.

Q: For `COc1ccc(C2CC(=O)Oc3c(C(CCN4CCCCC4)c4ccc(N(C)C)cc4)c(OC)cc(OC)c32)cc1` (stereo not given), which Potency is on record?
A: The Potency was inconclusive: 31.6 µM [inhibitor, single point].

Q: `Cc1ccsc1/C=N/NC(=O)c1cccs1` was tested. Which Potency did it give?
A: The Potency was inconclusive: 12.6 µM [inhibitor, partial curve, poor fit].

Q: `Cc1ccc(/C=C(\CCC(=O)O)c2nc3ccccc3s2)cc1[N+](=O)[O-]` was tested. Which Potency did it give?
A: Its Potency is inconclusive: 6.31 µM [inhibitor, partial curve].

Q: How did the Potency turn out when `CCCCCC1CC1C(=O)N/N=C/c1ccc(N(C)C)cc1` (stereo not given) was run?
A: Its Potency is active: 15.8 µM.

Q: For `CCOc1ccc(-c2[nH]ncc2Oc2ccccc2OC)c(O)c1`, which Potency is on record?
A: The Potency was inconclusive: 39.8 µM [inhibitor, single point].

Q: With `Cc1ccc(C(C)NC(=O)C2CCCO2)cc1C` (stereo not given) as the compound, how does the “activity, negative = inhibition” value read?
A: Its value is inactive: -7.4%.

Q: With `Cc1cc(/C=N/NC(=O)C(=O)N2CCCC2)c(C)n1-c1cccc(Br)c1` as the compound, how does the Potency read?
A: The Potency was inconclusive: 28.2 µM [inhibitor, partial curve].

Q: Which Potency does the source give for `CC(=O)Nc1ccc2cc3ccc(NC(C)=O)cc3nc2c1` here?
A: Its Potency is active: 7.94 µM.

Q: `O=C(O)c1[nH]c2ccc([N+](=O)[O-])cc2c1-c1ccccc1` was tested. Which Potency did it give?
A: Its Potency is inconclusive: 20 µM [inhibitor, partial curve].

Q: For `COc1ccccc1CNc1ccnc(-c2ccoc2)n1`, which Potency is on record?
A: The Potency was inconclusive: 3.16 µM [inhibitor, single point].

Q: Which Potency does the source give for `CCN(CC)C(=N)/C(C#N)=N/Nc1ccc(C)cc1` here?
A: Its Potency is inconclusive: 31.6 µM [inhibitor, single point].

Q: Which “activity, negative = inhibition” value does the source give for `CCCn1c2ccc(C)cc2c2nnc(SCCN3CCCCC3)nc21` here?
A: Its value is inactive: -16.1%.

Q: `COc1ccc(CCNC(=O)c2cc(-c3ccc(C)c(C)c3)nc3ccccc23)cc1OC` was tested. Which “activity, negative = inhibition” value did it give?
A: Its value is inactive: -0.0668%.

Q: Which “activity, negative = inhibition” value does the source give for `CCOc1ccc(CCNC(c2nnc(-c3ccccc3)o2)c2ccccc2Cl)cc1OCC` (stereo not given) here?
A: The value was inactive: -15.3%.

Q: How did the Potency turn out when `O=C(/C=C/c1ccccc1)c1ccoc1` was run?
A: Its Potency is inconclusive: 20 µM [inhibitor, partial curve].

Q: With `Cc1cc(O)c(/C=N/Nc2ccccc2Cl)c(=O)o1` as the compound, how does the Potency read?
A: The Potency was inconclusive: 25.1 µM [inhibitor, partial curve].

Q: How did the “activity, negative = inhibition” value turn out when `CCCN(C(=O)Cn1nc(Cc2cccnc2)c2ccccc2c1=O)c1ccc(C(C)C)cc1` was run?
A: The value was inactive: -9.79%.

Q: `COc1cccc(-c2cn3c(n2)sc2cc(C(=O)NCCc4ccccc4)ccc23)c1` was tested. Which “activity, negative = inhibition” value did it give?
A: The value was inactive: -14.5%.

Q: Which “activity, negative = inhibition” value does the source give for `CCc1ccccc1NC(=O)CSc1nc2ccccc2nc1Cc1cccc(OC)c1` here?
A: Its value is inactive: -0.812%.

Q: Which Potency does the source give for `NC(=O)CC(NC(=O)Cc1ccc(Br)cc1)c1ccc(N2CCN(c3ccccc3)CC2)c([N+](=O)[O-])c1` (stereo not given) here?
A: Its Potency is inconclusive: 0.158 µM [inhibitor, partial curve, poor fit].

Q: Which “activity, negative = inhibition” value does the source give for `Cc1cc(C(=O)CN2C(=O)NC3(CCCc4ccccc43)C2=O)c(C)n1Cc1ccccc1` (stereo not given) here?
A: The value was inactive: -24.7%.

Q: How did the “activity, negative = inhibition” value turn out when `CCN(CC)S(=O)(=O)c1ccc(C(=O)Nc2nnc(-c3ccco3)o2)cc1` was run?
A: The value was inactive: -9.74%.

Q: How did the Potency turn out when `COc1ccc(C(=O)Cn2c(C)nc([N+](=O)[O-])c2Br)cc1` was run?
A: Its Potency is inconclusive: 28.2 µM [inhibitor, partial curve].

Q: Which Potency does the source give for `Cc1cc(O)c2c(c1O)C(=O)c1c(O)cc(C)c(O)c1C2=O` here?
A: Its Potency is inconclusive: 14.1 µM [inhibitor, partial curve].

Q: Which Potency does the source give for `O=[N+]([O-])c1ccc(OCCN2CCNCC2)cc1` here?
A: Its Potency is inconclusive: 39.8 µM [inhibitor, single point].

Q: Which Potency does the source give for `CN1CCc2c(sc(N)c2C(N)=O)C1` here?
A: The Potency was inconclusive: 15.8 µM [inhibitor, partial curve].

Q: `COc1ccc(N(C(=O)c2cccnc2)S(=O)(=O)c2cccc([N+](=O)[O-])c2)cc1` was tested. Which Potency did it give?
A: Its Potency is inconclusive: 15.8 µM [inhibitor, partial curve].

Q: Which Potency does the source give for `COc1cc(/C=C2\SC(N)=NC2=O)ccc1OCC(=O)Nc1ccc(C)cc1` here?
A: Its Potency is inconclusive: 3.16 µM [inhibitor, partial curve].

Q: Which Potency does the source give for `COc1ccccc1C1CC(=O)Oc2cc(C)c(Cl)cc21` (stereo not given) here?
A: The Potency was inconclusive: 63.1 µM [inhibitor, single point].

Q: For `O=S(=O)(c1ccc(Br)cc1)N1CCn2cccc2C1c1ccc(Br)cc1` (stereo not given), which “activity, negative = inhibition” value is on record?
A: Its value is inactive: -7.86%.

Q: With `O=C(CN1CCCc2ccccc21)N/N=C/c1ccccc1` as the compound, how does the Potency read?
A: The Potency was inconclusive: 14.1 µM [inhibitor, partial curve].

Q: `CCOCCc1nn2c(=O)cc(COC(=O)c3ccc4c(c3)OCO4)nc2s1` was tested. Which Potency did it give?
A: The Potency was inconclusive: 22.4 µM [inhibitor, single point].

Q: With `O=C(Nc1ccc(-n2ccnc2P(=O)(O)c2ccccc2)cc1)c1ccccc1Br` as the compound, how does the Potency read?
A: Its Potency is inconclusive: 12.6 µM [inhibitor, partial curve].

Q: `COc1ccc(Nc2nc(NC(C)(C)C)nc(N3CCCC3)n2)c(OC)c1` was tested. Which Potency did it give?
A: The Potency was inconclusive: 8.91 µM [inhibitor, partial curve].

Q: With `Cc1cc(C)c(C)c(S(=O)(=O)N2CCN(c3ccc(O)cc3)CC2)c1C` as the compound, how does the Potency read?
A: The Potency was inconclusive: 7.08 µM [inhibitor, partial curve].

Q: With `Cc1c(Cl)cccc1N=Cc1ccc([N+](=O)[O-])s1` as the compound, how does the Potency read?
A: The Potency was inconclusive: 8.91 µM [inhibitor, partial curve].

Q: Which Potency does the source give for `Cc1c(NC(=S)NC(NC(=O)C(C)(C)C)C(Cl)(Cl)Cl)c(=O)n(-c2ccccc2)n1C` (stereo not given) here?
A: Its Potency is inconclusive: 11.2 µM [inhibitor, partial curve, poor fit].

Q: For `CC1CCCCC1NC(=O)CSc1ccsc1[N+](=O)[O-]` (stereo not given), which Potency is on record?
A: The Potency was inconclusive: 20 µM [inhibitor, single point].

Q: `CCn1c(SCC(=O)Nc2nc(-c3ccccc3)cs2)nnc1-c1ccccc1` was tested. Which “activity, negative = inhibition” value did it give?
A: Its value is inactive: -12.1%.

Q: Which Potency does the source give for `Nc1ccccc1C(=O)/C=C\c1ccc2c(c1)OCO2` here?
A: The Potency was active: 1.26 µM.

Q: With `Fc1ccccc1CCNc1c2c(nc3ncnn13)CCCC2` as the compound, how does the “activity, negative = inhibition” value read?
A: Its value is inactive: -2.3%.

Q: How did the Potency turn out when `N#C/C(=N\Nc1ccc(S(=O)(=O)N2CCc3ccccc32)cc1)C(N)=S` was run?
A: The Potency was active: 14.1 µM.

Q: Which Potency does the source give for `Cc1cccc(-c2cc(C(=O)O)c3c(-c4ccc(F)cc4)[nH]nc3n2)c1` here?
A: The Potency was inconclusive: 8.91 µM [inhibitor, partial curve].

Q: `Cc1ccc2nc(N(Cc3cccnc3)C(=O)CCc3ccccc3)sc2c1` was tested. Which Potency did it give?
A: Its Potency is inconclusive: 11.2 µM [inhibitor, single point].

Q: `COc1ccc(/C=N/Nc2nc(Nc3ccccc3)nc(N3CCCC3)n2)cc1[N+](=O)[O-]` was tested. Which Potency did it give?
A: Its Potency is inconclusive: 7.94 µM [inhibitor, full curve].

Q: Which “activity, negative = inhibition” value does the source give for `COc1ccc(NC(=O)C2CCC(=O)N2S(=O)(=O)c2ccc(C)cc2)c(OC)c1` (stereo not given) here?
A: The value was inactive: 3.19%.

Q: How did the Potency turn out when `C/C(=N/NC(=O)CNC(=O)c1ccccn1)c1ccc([N+](=O)[O-])cc1` was run?
A: Its Potency is inconclusive: 7.08 µM [inhibitor, full curve].

Q: For `CCc1nn2c(=O)cc(COc3ccc(/C=C4\C(=N)N5N=C(C)SC5=NC4=O)cc3)nc2s1`, which Potency is on record?
A: The Potency was active: 12.6 µM.

Q: How did the “activity, negative = inhibition” value turn out when `CCSc1nnc(NC(=O)CSc2nnc(CNC(=O)c3ccccc3F)o2)s1` was run?
A: The value was inactive: -3.13%.

Q: Which Potency does the source give for `CC(=O)Nc1cccc(C(=O)/C=C/c2ccc(N(C)C)cc2)c1` here?
A: Its Potency is active: 25.1 µM.

Q: `Oc1ccccc1C1=NOC(O)(C(F)F)C1` (stereo not given) was tested. Which “activity, negative = inhibition” value did it give?
A: Its value is inactive: 1.65%.

Q: For `O=C(COC(=O)c1ccc2[nH]c3c(c2c1)CCCC3)Nc1ccccc1`, which Potency is on record?
A: The Potency was inconclusive: 1.78 µM [inhibitor, full curve].

Q: With `CCc1nc2ccccc2c(C(=O)OCc2nnc(-c3ccccc3)o2)c1C` as the compound, how does the Potency read?
A: The Potency was inconclusive: 20 µM [inhibitor, partial curve, poor fit].

Q: `CCCCC1C(=O)N(c2ccccc2)N(c2ccc(O)cc2)C1=O` (stereo not given) was tested. Which Potency did it give?
A: The Potency was active: 15.8 µM.

Q: `Cc1nc(NC(=O)c2ccco2)sc1-c1csc(Nc2ccc(Cl)cc2)n1` was tested. Which Potency did it give?
A: Its Potency is active: 7.08 µM.

Q: Which “activity, negative = inhibition” value does the source give for `COc1ccc(CCNC(=O)CCn2c(=O)c3cccn3c3ccc(F)cc32)cc1OC` here?
A: Its value is inactive: 1.38%.

Q: With `Cc1cccn2c(=O)c(C=O)c(N3CCN(c4ccc(F)cc4)CC3)nc12` as the compound, how does the Potency read?
A: Its Potency is inconclusive: 28.2 µM [inhibitor, partial curve].

Q: `O=C(CSc1ccc(Cl)cc1)Nc1ccc(N2CCN(C(=O)c3ccc(Cl)cc3)CC2)cc1` was tested. Which Potency did it give?
A: Its Potency is inconclusive: 2.24 µM [inhibitor, partial curve].

Q: `CC(C)Cc1ccc(C(C)C(=O)Nc2ccccc2O)cc1` (stereo not given) was tested. Which “activity, negative = inhibition” value did it give?
A: The value was inactive: -8.23%.

Q: For `CCOC(=O)c1sc(NC(=O)CSc2nnc(Cc3ccccc3)o2)c(C#N)c1C`, which Potency is on record?
A: Its Potency is active: 28.2 µM.

Q: Which “activity, negative = inhibition” value does the source give for `Cc1ccc(-c2cn3c(n2)sc2cc(C(=O)NC4CCCCC4)ccc23)cc1` here?
A: Its value is inactive: -8.56%.

Q: With `Cc1ccc(C(=O)NC(=S)Nc2cccc(NC(=O)c3ccccc3)c2)cc1[N+](=O)[O-]` as the compound, how does the Potency read?
A: The Potency was inconclusive: 5.62 µM [inhibitor, full curve].

Q: With `C=C[C@@](C)(O)CC[C@@H]1[C@@]2(C)CCCC(C)(C)[C@@H]2CC[C@@]1(C)O` as the compound, how does the Potency read?
A: The Potency was inconclusive: 0.158 µM [activator, single point].

Q: With `CCOC(=O)/C(C#N)=C/c1ccc(OCC(=O)Nc2ccccc2)c(OC)c1` as the compound, how does the Potency read?
A: The Potency was inconclusive: 31.6 µM [inhibitor, partial curve].

Q: How did the Potency turn out when `COc1ccc(Cl)cc1NC(=O)c1cc2nc(-c3ccc(C)cc3)cc(C(F)(F)F)n2n1` was run?
A: Its Potency is inconclusive: 28.2 µM [inhibitor, single point].

Q: With `COc1cc2nc(N3CCN(C(=O)C4COc5ccccc5O4)CC3)nc(N)c2cc1OC` (stereo not given) as the compound, how does the Potency read?
A: Its Potency is inconclusive: 11.2 µM [inhibitor, partial curve].

Q: Which Potency does the source give for `CCCC(=O)N(c1ccc2oc(=O)sc2c1)S(=O)(=O)c1ccccc1` here?
A: Its Potency is inconclusive: 14.1 µM [inhibitor, single point].

Q: For `COc1ccccc1Nc1cc(C)nc2c(C)ccc([N+](=O)[O-])c12`, which Potency is on record?
A: Its Potency is inconclusive: 25.1 µM [inhibitor, single point].

Q: How did the Potency turn out when `Cc1cc(C)nc(Nc2n[nH]c(-c3ccc(N)cc3)n2)n1` was run?
A: The Potency was inconclusive: 15.8 µM [inhibitor, partial curve, poor fit].

Q: For `COc1ccc(/C(N)=N/OC(=O)CSc2ccccc2)cc1OC`, which Potency is on record?
A: The Potency was inconclusive: 12.6 µM [inhibitor, partial curve].
